Out of some 220,000 compounds screened, about 16,000 (7.3%) were called active. Inconclusive means that the source gave no clear call. Such entries were picked first, then a sample of the others. The call rests on the fitted dose curve; in most records, active means well fitted inhibition curve with a large enough effect (not every such curve was filed as active); inconclusive means small, poorly fitted or top-dose-only effect, or another doubt; inactive means no such curve, though single readings can be large or run the other way. No potency is given beside an inconclusive call; the fits are too rough.
target: Aldehyde dehydrogenase 1A1 (Homo sapiens) (UniProt P00352); assay: qHTS Assay for Inhibitors of Aldehyde Dehydrogenase 1 (ALDH1A1); conditions: Purified ALDH1A1, NADH fluorescence, propionaldehyde substrate; series mostly up to 75.3 µM; activity, negative = inhibition: at the top concentration;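 on activity, negative = inhibition: plate controls were no enzyme wells and a reference inhibitor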
Sequence of UniProt P00352 (P00352 whole entry, looked up): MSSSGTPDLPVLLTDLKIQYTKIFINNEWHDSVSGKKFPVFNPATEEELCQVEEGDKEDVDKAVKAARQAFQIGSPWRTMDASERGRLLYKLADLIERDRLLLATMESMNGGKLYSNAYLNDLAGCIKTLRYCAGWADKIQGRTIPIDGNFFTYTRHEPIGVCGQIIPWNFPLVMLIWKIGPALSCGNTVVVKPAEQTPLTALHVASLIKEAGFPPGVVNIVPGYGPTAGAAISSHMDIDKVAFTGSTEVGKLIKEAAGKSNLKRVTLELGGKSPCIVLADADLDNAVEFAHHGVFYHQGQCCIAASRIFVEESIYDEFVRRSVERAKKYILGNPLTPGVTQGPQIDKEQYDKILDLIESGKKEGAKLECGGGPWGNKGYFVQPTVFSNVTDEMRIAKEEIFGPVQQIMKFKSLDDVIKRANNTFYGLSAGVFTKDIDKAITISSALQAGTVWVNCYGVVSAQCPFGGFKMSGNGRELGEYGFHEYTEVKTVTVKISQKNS
Potency means the concentration at half of the fitted maximal effect; tags describe the fitted curve by direction and shape.

Structure (SMILES)	Potency	activity, negative = inhibition
Cc1ccc(-c2nn(CCC(=O)NCC3CCCO3)c(=O)c3ccccc23)cc1 (configuration not stated)	inconclusive [inhibitor, partial curve]	–
O=C(COC(=O)CCc1ccc(S(=O)(=O)N2CCCCC2)cc1)Nc1ccc2c(c1)OCO2	inconclusive [inhibitor, single point]	–
CN(C)/C=C(/C(=O)c1ccccc1)S(=O)(=O)c1ccc(Cl)cc1	–	inactive: -1.39%
CCN(N=Nc1cccc([N+](=O)[O-])c1)c1cccc([N+](=O)[O-])c1	inconclusive [inhibitor, single point]	–
CCn1c(=O)n(CC(=O)NC2CCCC(C)C2C)c(=O)c2ccccc21 (configuration not stated)	inconclusive [inhibitor, partial curve]	–
CCC(=O)OCC(=O)Nc1ncc(C(F)(F)F)cc1Cl	–	inactive: 0.59%
Cc1ccc(OCC(=O)N2CCN(C(=O)c3ccncc3)CC2)cc1	–	inactive: 4.22%
COc1ccccc1-c1nnc(SC2CCc3ccccc3NC2=O)s1 (configuration not stated)	inconclusive [inhibitor, single point]	–
CC(=O)c1c(COC(=O)c2ccccc2)nc2ccccc2[n+]1[O-]	inconclusive [inhibitor, single point]	–
Cc1nc2ccc(NC(=O)c3ccc(S(=O)(=O)N4CCOCC4)cc3)cc2s1	inconclusive [inhibitor, single point]	–
S=C(c1ccc(-c2ccccc2Cl)o1)N1CCCCC1	inconclusive [inhibitor, single point]	–
Cc1cc(Nc2ccccc2)n(-c2cccc(Cl)c2)n1	inconclusive [inhibitor, single point]	–
Cc1ccc(S(=O)(=O)Nc2ccc(S(=O)(=O)Nc3cc(C)nc(C)n3)cc2)cc1	active: 3.98 µM	–
COc1ccc(F)cc1C(=O)C1CCCN(C(=O)CCc2ccccn2)C1 (configuration not stated)	–	inactive: -4.22%
O=C(Nc1nc(-c2ccc(S(=O)(=O)N3CCCC3)cc2)cs1)c1ccco1	inconclusive [inhibitor, single point]	–
Cc1c(C=O)c(C=O)c(C)n1Cc1ccccc1	inconclusive [inhibitor, partial curve]	–
Cc1ccnc(NC(=O)c2ccc(S(=O)(=O)c3ccccc3)cc2)c1	inconclusive [inhibitor, partial curve]	–
COc1ccc(C2CC(c3ccc4ccccc4c3)=NN2C(=O)COC(=O)C2CCC(=O)N2)cc1 (configuration not stated)	inconclusive [inhibitor, single point]	–
COc1c(O)ccc(/C=C(\C#N)c2nc3ccccc3[nH]2)c1[N+](=O)[O-]	–	inactive: -0.671%
c1ccc(N2CCN(c3ncnc4sc5c(c34)CCC5)CC2)cc1	inconclusive [inhibitor, single point]	–
O=c1c2cnn(-c3ccccc3)c2nnn1/N=C/c1cccnc1	active: 0.398 µM	–
CN(C)c1ccc(-c2cncnc2Nc2ccc(F)cc2)cc1	inconclusive [inhibitor, partial curve]	–
COC(=O)C/C=C\[C@@H](C)[C@@H](/C=N\OCC[C@H]1C=C[C@H](OC(C)=O)[C@@H](COC(C)=O)O1)NS(=O)(=O)c1ccc(C)cc1	–	inactive: -8.73% [at 13.5 µM]
Clc1ccc(OCc2nc(-c3ccncc3)no2)c(Cl)c1	–	inactive: 10.1%

Structure (SMILES)	Potency	activity, negative = inhibition
O=C(N/N=C/c1cc(Br)c(Br)o1)C(O)c1ccccc1 (configuration not stated)	inconclusive [inhibitor, single point]	–
CC(NC(=O)c1ccc(Br)o1)c1ccccc1 (configuration not stated)	inconclusive [inhibitor, single point]	–
COc1cccc(C(=O)CC(=O)C(=O)Nc2cc(Cl)c(OC)cc2OC)c1	inconclusive [inhibitor, partial curve]	–
O=C(NCC1CCCO1)c1ccc2c(=O)n(-c3ccc(F)cc3)c(=S)[nH]c2c1 (configuration not stated)	inconclusive [inhibitor, full curve]	–
COc1ccc(OC)c2sc(NC(=O)CCSc3ccccc3)nc12	–	inactive: -9.85%
N#CN(Cc1ccccc1)Cc1ccccc1	active: 39.8 µM	–
COCCNCC(=O)Nc1nc(C)cs1	inconclusive [inhibitor, full curve]	–
CCNC(=S)NNC(=O)c1cccnc1	–	inactive: 2.23%
CCN(C(=O)CSc1nnc(Cn2nnc3ccccc32)o1)c1nc(C)cs1	inconclusive [inhibitor, single point]	–
CCc1ccc2c(c1)C(=O)c1ccccc1C2=O	inconclusive [inhibitor, single point]	–
COc1ccc2c(c1)C(SCC(=O)NCCc1ccccc1)CC(C)(C)O2 (configuration not stated)	inconclusive [inhibitor, partial curve]	–
CCC(=O)N(CC(=O)Nc1sc(C)c(C)c1C(N)=O)C1CCCCC1	inconclusive [inhibitor, single point]	–
CCOC(=O)C1CCCN(C(=O)c2cc(-c3ccccc3)on2)C1 (configuration not stated)	–	inactive: -7.52%
COC1(c2ccccc2)NC(=S)NN=C1c1ccccc1 (configuration not stated)	active: 0.891 µM	–
Cc1ccc2[nH]c3c(c2c1)CN(C(=O)CN1CCN(c2cccc(C)c2C)CC1)CC3	active: 4.47 µM	–
Cc1cc(C(=O)CCl)c(C)n1-c1cccc(S(=O)(=O)N2CCOCC2)c1	active: 0.178 µM	–
Cc1ccc(CCNC(=O)C2CCC(CNc3c(N4CCC(C)CC4)c(=O)c3=O)CC2)cc1 (configuration not stated)	–	inactive: -4.72%
O=C(CCCCCN1C(=O)c2cccc3cccc(c23)C1=O)NCCO	inconclusive [inhibitor, single point]	–
CC1=NN(c2ccccc2)C(=O)/C1=C\c1cn(-c2ccccc2)nc1C	inconclusive [inhibitor, partial curve]	–
NC(=O)c1ccc(N2CCN(c3ccccc3F)CC2)c([N+](=O)[O-])c1	–	inactive: 1.76%
CCN(CC)S(=O)(=O)c1ccc(N(C)Cc2cccc(OC)c2OC)nc1	–	inactive: -13%
CO[C@H]1COC(=O)C/C=C\[C@H](C)[C@H](OC)COC(=O)[C@@H](C)NC(=O)C/C=C\[C@@H]1C	–	inactive: -2.27% [at 13.5 µM]
COC(=O)CCC(=O)OC1(C)C(=O)C=C2C=C(C3CC3)N(Cc3ccc4c(c3)OCO4)C=C2C1=O (configuration not stated)	–	inactive: 3.66% [at 13.5 µM]
Cc1[nH]nc2c1C(c1ccccc1)C1=C(CC(C)(C)CC1=O)N2 (configuration not stated)	–	inactive: -2.12%

Structure (SMILES)	Potency	activity, negative = inhibition
Oc1ccc2cc(SSc3ccc4cc(O)ccc4c3)ccc2c1	–	inactive: -44.1%
Cc1onc(-c2ccccc2Cl)c1C(=O)Nc1nnc(-c2ccc(Br)cc2)s1	inconclusive [inhibitor, partial curve]	–
O=C(O)Cn1c(=O)cnc2ccccc21	inconclusive [inhibitor, single point]	–
C/C(NC(=O)c1ccccc1F)=C1\C(=O)C[C@@H]2[C@H]1C2(C)C	–	inactive: -12.9%
Cn1cc(Cl)c(C(=O)Nc2nc3ccc([N+](=O)[O-])cc3s2)n1	–	inactive: 9.13%
COc1cccc2c(=O)n(CC(=O)N3CCCCC3)ccc12	inconclusive [inhibitor, partial curve]	–
CC1CC(C)CN(c2ncc3c(n2)CC(c2ccccc2)CC3=O)C1 (configuration not stated)	inconclusive [inhibitor, partial curve]	–
Clc1nnc(N/N=C/c2ccccc2)c2ccccc12	–	inactive: -9.13%
CCOC(=O)N1CCN(C(=O)c2ccc3c(c2)NC(=O)C(N2CCOCC2)S3)CC1 (configuration not stated)	–	inactive: 1.09%
O=C(O)Cc1c[nH]c2ccc(O)cc12	inconclusive [inhibitor, single point]	–
O=C(NC(=S)Nc1ccc(C(F)(F)F)cc1)c1csnn1	inconclusive [inhibitor, single point]	–
O=C(Oc1ccccc1)N1CCC2(CC1)CCN(c1cccc(-c3ccccc3)c1)CC2	inconclusive [inhibitor, single point]	–
COc1ccc(C)c2sc(=NC(=O)c3ccc(C(C)=O)cc3)n(C)c12	inconclusive [inhibitor, single point]	–
CC12C=C(/C=C/C=C/c3ccco3)C(C)(C1)C(/C=C/c1ccco1)CC2=O (configuration not stated)	–	inactive: -13.5% [at 13.5 µM]
COc1ccc(CNC(=O)CCCCCn2c(SCC#N)nc3cc4c(cc3c2=O)OCO4)cc1	inconclusive [inhibitor, partial curve]	–
CCN(CC)C(=O)CSc1nnc(CCNC(=O)OC(C)(C)C)o1	inconclusive [inhibitor, single point]	–
O=C(O)c1cccc(Nc2ncnc3ccccc23)c1	–	inactive: 6.93%
O=C(CN1CCN(c2ncccn2)CC1)N1CCCc2c1c(=O)oc1ccc(O)cc21	active: 0.794 µM	–
O=C1COc2ccc(C(=O)COC(=O)COc3ccccc3[N+](=O)[O-])cc2N1	inconclusive [inhibitor, partial curve, poor fit]	–
O=C(Nc1ccc(Oc2ccccc2)cc1)c1cnc2n(c1=O)CCS2	inconclusive [inhibitor, single point]	–
CCCOc1ccc(-c2nc(OC)c3ccccc3n2)cc1	inconclusive [inhibitor, single point]	–
Cc1cc2oc(=O)cc(Cn3ccnc3)c2cc1C	–	inactive: -13.8%
COCCCn1cnc2c(c1=O)c1nc3ccccc3nc1n2-c1ccccc1	inconclusive [inhibitor, partial curve]	–
COc1ccc(N(C(=O)c2ccc(S(=O)(=O)N3CCOCC3)cc2)C2C=CS(=O)(=O)C2)cc1 (configuration not stated)	inconclusive [inhibitor, single point]	–

Reference: PubChem BioAssay AID1030 (National Center for Advancing Translational Sciences (NCATS), 2008)
